Here are results for 167 variants from the RNAGym collection of RNA variant scans (doi:10.7554/elife.90254).

B1: LINE1-mini (parent)
chain: GGCAGAGCUCAACACAGCGUGGCAAAGUGGCUGUGGCUAGACUGCC

Read counts are not given, so values of variants with three or more changes are uncertain.

In the series the parent is B1. The series can be described thus: self-cleavage, relative activity (ratio to wild type); higher = more cleavage; in vitro, sequencing; the parent is a self-cleaving ribozyme.
Regarding G17C U28C C37G C42A, the self-cleavage came to 0.
As for G2C C10A C37U, the self-cleavage was found to be 0.06.
Regarding C3G G7C C13U U20G C42U, the self-cleavage is 0.02.
For A16U C18A G22A the value was 0.03; for U9A A25C C31U, 0.02.
As for G1A G5C C31A, the self-cleavage is 0.05.
With G29U G36A G40C, the self-cleavage stood at 0.09.
Consider C13U C23A G44U C46U, for which the self-cleavage amounted to 0.44.
For G5A C10A A12C G27U G29U A41U the value was 0; for C3G C8A C18G G35C, 0.36.
Regarding G5A G19U G30U, the self-cleavage came out at 0.16.
As for C3U A12G C31G, the self-cleavage is 0.13.
Regarding G5U C10A C18U, the self-cleavage was determined as 0.03.
On to C10G C13U U34G G40C G44U C46U, for which the self-cleavage turned out to be 0.
For the variant G2C C13G G21A C46G, the self-cleavage was determined as 0.2.
For C10U C13U U20G G22C A25C G35U the value was 0; for G5C C10U A11G U20C A41U U43A C45G, 0; for C13G G27C U38C A39C A41U C42U, 0.
For A11C A14C G17A G44U the value was 0.01; for U9A C13G C18G G22U C42A, 0.08.
For G2U G30C U32C C46G the value was 0.04; for U9G C18U G33A A39G, 0.03; for G2U G17U C18U G21C C23A A25G C37G, 0.05.
As to G7C A12G C13U C15U U34G, the self-cleavage came to 0.03.
G1U A6C A11G G27U G36U C37A A39C G40U: the self-cleavage was determined as 0.
For G1A U9A G17A G35U G36U the value was 0.08.
Regarding C3U G7C C13U C45G, the self-cleavage came to 0.07.
As for G2U U20C C31G C46A, the self-cleavage came out at 0.01.
For G1A A12C U28C G35C the value was 0.04; for G7U A24U U28C, 0.02.
For C10U U38A A41G G44A the value was 0.03; for G7A A16U A26U C37G, 0.01; for G5U G22U U38A, 0.07.
With A14U G36C A39U G44U, the self-cleavage was 0.02.
With C10U G19C A24C, the self-cleavage is 0.06.
Regarding A4C G7U C10U, the self-cleavage came out at 0.04.
In the case of C3A A16U G17U G21A C31A U38C, the self-cleavage worked out at 0.14.
Turning to A11U U34A C37A U38A A41U C45A, the self-cleavage was 0.01.
In the case of G7C A14C G35C, the self-cleavage is 0.03.
Turning to G5A U9A A11U C13U A26G G36C, the self-cleavage is 0.03.
On to C18G G40A A41C C45G, for which the self-cleavage was found to be 0.04.
For G22A C42G C46U the value was 0.01.
Regarding G2A A14C C31U, the self-cleavage is 0.05.
With A6C A11C C23U A24C G29C G36A, the self-cleavage was found to be 0.
On to A14G G17C C23U U32C G40C, for which the self-cleavage stood at 0.04.
For G2C C37G A41G, the self-cleavage is 0.01.
For C10A G21C C37A, the self-cleavage was 0.01.
For the variant U28G G33A G36C C45A, the self-cleavage came out at 0.
In the case of A6C C8U C10G A16G U28G, the self-cleavage is 0.03.
On to C3G C10A A12C G27U, for which the self-cleavage was determined as 0.05.
With U9A A25C G40U, the self-cleavage amounted to 0.04.
For C15A G21C A39G the value was 0.02; for C13U C23U A25C U43A, 0.07.
Consider G22A G27U G30A G44A C46G, for which the self-cleavage was found to be 0.06.
For C13G G17U C23U A26G the value was 0.02.
As to C8U C18G A39C, the self-cleavage was 0.03.
Turning to U20A C23A U38A, the self-cleavage came out at 0.14.
A11G C15A A41U: the self-cleavage was determined as 0.03.
For C10A U28A G36A the value was 0; for A14C A39G C46A, 0.02.
Consider A6C A25C G30C, for which the self-cleavage came out at 0.22.
Take G2A C18A U20G: the self-cleavage came to 0.07.
With G2U A12U C15A C31U C37G, the self-cleavage amounted to 0.01.
For C8G A11U G17U G36A, the self-cleavage stood at 0.02.
As to G1A A11C G22C G33U G35A, the self-cleavage was 0.02.
U9A G17A G33U A39C: the self-cleavage is 0.02.
Take C31A C42U C46G: the self-cleavage came to 0.02.
G29A G33U G35C C45G: the self-cleavage was 0.01.
For C13A A26C G30U the value was 0.01; for G1U A6G A25U G40U, 0.19; for U9A A11U C13A G27U, 0.04.
For C13A C15G G21C A39G G40C, the self-cleavage turned out to be 0.01.
Turning to A4C G5A U9A C15G G19U, the self-cleavage is 0.06.
Consider G1A C3A A39U, for which the self-cleavage came out at 2.67.
For the variant G2A A16G A25G, the self-cleavage turned out to be 0.17.
G2A G5A G7U A24C: the self-cleavage is 0.1.
As to C3G C18G G21C A24U, the self-cleavage is 0.03.
Take C13U A25C G27U G40C: the self-cleavage was found to be 0.12.
For A12C G19C G27U A39U C46U, the self-cleavage was found to be 0.
Turning to C8A A11G A14U, the self-cleavage is 0.04.
For G1C C3A G5A A24C U43G the value was 0.03.
Turning to C3U C13U U43A, the self-cleavage was determined as 0.1.
Regarding C10U U32G C46A, the self-cleavage is 0.11.
As for G2C C31G G35A, the self-cleavage was found to be 0.21.
Consider U20C A25U G30A U43C, for which the self-cleavage is 0.05.
For A12C A26C U34G the value was 0.01.
Take A4C C42A C45A C46U: the self-cleavage is 0.15.
For G7U C10G G27A the value was 0.02; for A16U G29U C42A, 0.25.
Regarding C10A A14C G21C, the self-cleavage amounted to 0.01.
In the case of A14U G30C G44A, the self-cleavage is 0.03.
As to C13U G29C G30U, the self-cleavage is 0.14.
A16U A25U C31U: the self-cleavage was found to be 0.01.
Regarding A4U A6G G27C G33U, the self-cleavage stood at 0.09.
Turning to G5A G21U G27U U43A, the self-cleavage came to 0.03.
C15U A41C C46A: the self-cleavage amounted to 0.03.
For G1C C3U A11G A14U C31A, the self-cleavage was determined as 0.01.
Consider A16G C31U G40U, for which the self-cleavage worked out at 0.01.
G5C A14C G19C C31A C37U C45U: the self-cleavage is 0.01.
For C10U A16G U20A C42U the value was 0; for G5C A12G C23G U32A G33A, 0.02.
With G29U G30A C45U, the self-cleavage was determined as 1.59.
On to A4G G35U C42U, for which the self-cleavage is 0.05.
With G1U G5C A11C G22C C23U, the self-cleavage was found to be 0.
On to G5U C10A U20C G40U C42G, for which the self-cleavage was determined as 0.01.
C3U A6U A16U G40U C42U: the self-cleavage came to 0.12.
As for A12C G27A C45U, the self-cleavage is 0.02.
For A4C G5A U28A the value was 0.03.
Consider C10U G17C G19C G22A G27A, for which the self-cleavage stood at 0.15.
Regarding C10G G22U G33C, the self-cleavage was found to be 0.02.
With A11C C23G G44C, the self-cleavage is 0.04.
Turning to G7A C15A A25G C45G, the self-cleavage came out at 0.07.
As to G2U C10A C13U G36A, the self-cleavage worked out at 0.05.
For C3A G27A G40U U43A the value was 0.08; for A12G A24C G29A G33A, 0.01.
For G1C C15G C31A the value was 0.19.
For G27U U32G G35C, the self-cleavage was 0.03.
In the case of C15U A25C A26U U28G G30A G33A, the self-cleavage amounted to 0.07.
For A4C G5A C10A the value was 0.
Consider G2A G7A U28A C45G, for which the self-cleavage was found to be 0.47.
For C18U C31G C37A the value was 0.06.
As to A12U C23A C37U, the self-cleavage is 0.
Consider A16G C23A U28A U32G, for which the self-cleavage was 0.09.
For A26C A41G U43A the value was 0.16.
C10A G17C C46A: the self-cleavage came out at 0.05.
For C10A A16C G29U the value was 0.03; for C3A C13G C18U C23U G30U A39C G40U C42A, 0.02.
With G5U C10A G21C, the self-cleavage was found to be 0.04.
As to C15G G35A U43G, the self-cleavage came to 0.
In the case of U20G G29C C42A, the self-cleavage was 0.17.
For C15A G29U C31G U38G, the self-cleavage stood at 0.05.
G2U A16U A39U G40U C45G: the self-cleavage is 0.11.
For G29U C31A U32G G44U the value was 0.12.
For U9A C10A A39C C45U the value was 0.01.
For C10A A16G G27U the value was 0.06; for G2A C23U G33A U34C, 0.04; for U9A U20C C23A G29U U38A C45U C46A, 0.
In the case of C3A C13U C31A G36U, the self-cleavage stood at 0.33.
For A12G A16U U20C G21A G44C the value was 0.02; for A11G A14C C15U G29C U32C U34C, 0.02; for C10A G17U A24U C37G, 0.01.
For C15A C18A G19U C37G, the self-cleavage stood at 0.02.
For G7C C8A G21C C37A, the self-cleavage stood at 0.12.
Take U28G C31G A41C U43C: the self-cleavage worked out at 0.01.
Take G5A G7U A25U G30A: the self-cleavage turned out to be 0.76.
In the case of G2A C8U G35U, the self-cleavage is 0.88.
For G1A U9A C15U G21U A25G, the self-cleavage was 0.1.
Turning to A11G C31A C37U, the self-cleavage came to 0.01.
For G5A G19C A25C G44C the value was 0.05; for G5U G7U G29C G36A C37G, 0.03; for G22U G36A C45A, 0.12.
For C10G C18U C42A the value was 0.02; for G1U U38G A39C C45A, 0.04; for C3A G17U C18U G36U, 0.25.
For C8G U20A C45U the value was 0.04; for C3U G7U G19A G29A G33U, 0.19; for C3G G17A G30A G35C G40A, 0.52.
With C3U U9A G30U A39C C42U, the self-cleavage was determined as 0.1.
In the case of A16G G17A C18G G27A G35U, the self-cleavage was 0.
For the variant A12C G19U U20G C23G G36A, the self-cleavage was 0.02.
Consider A4U C10A A16C G19U U20A C37G, for which the self-cleavage amounted to 0.01.
For G7C A25G U34A C46G the value was 0.02.
On to A6C U9C G19A A26C G36A, for which the self-cleavage turned out to be 0.06.
Turning to U20G G22C U34A U38G, the self-cleavage was found to be 0.04.
In the case of G2C A11G C13U A26C C37U, the self-cleavage was 0.03.
Turning to G5C C10G G40U, the self-cleavage came to 0.02.
For C10A C13G C31G U32C A41C, the self-cleavage came to 0.03.
